The values that follow come from PMC10407929.

Values joined by “and” are separate entries in the source; they are usually repeats but may differ in a detail not shown here. Equal entries are not always repeated. Some of the results follow. Measured with an extract: partners may take part in the binding.

What all share (test): pull-down
Experiment [1] addresses T1, RFC1 (Homo sapiens) (UniProt P35251).
T1 sequence: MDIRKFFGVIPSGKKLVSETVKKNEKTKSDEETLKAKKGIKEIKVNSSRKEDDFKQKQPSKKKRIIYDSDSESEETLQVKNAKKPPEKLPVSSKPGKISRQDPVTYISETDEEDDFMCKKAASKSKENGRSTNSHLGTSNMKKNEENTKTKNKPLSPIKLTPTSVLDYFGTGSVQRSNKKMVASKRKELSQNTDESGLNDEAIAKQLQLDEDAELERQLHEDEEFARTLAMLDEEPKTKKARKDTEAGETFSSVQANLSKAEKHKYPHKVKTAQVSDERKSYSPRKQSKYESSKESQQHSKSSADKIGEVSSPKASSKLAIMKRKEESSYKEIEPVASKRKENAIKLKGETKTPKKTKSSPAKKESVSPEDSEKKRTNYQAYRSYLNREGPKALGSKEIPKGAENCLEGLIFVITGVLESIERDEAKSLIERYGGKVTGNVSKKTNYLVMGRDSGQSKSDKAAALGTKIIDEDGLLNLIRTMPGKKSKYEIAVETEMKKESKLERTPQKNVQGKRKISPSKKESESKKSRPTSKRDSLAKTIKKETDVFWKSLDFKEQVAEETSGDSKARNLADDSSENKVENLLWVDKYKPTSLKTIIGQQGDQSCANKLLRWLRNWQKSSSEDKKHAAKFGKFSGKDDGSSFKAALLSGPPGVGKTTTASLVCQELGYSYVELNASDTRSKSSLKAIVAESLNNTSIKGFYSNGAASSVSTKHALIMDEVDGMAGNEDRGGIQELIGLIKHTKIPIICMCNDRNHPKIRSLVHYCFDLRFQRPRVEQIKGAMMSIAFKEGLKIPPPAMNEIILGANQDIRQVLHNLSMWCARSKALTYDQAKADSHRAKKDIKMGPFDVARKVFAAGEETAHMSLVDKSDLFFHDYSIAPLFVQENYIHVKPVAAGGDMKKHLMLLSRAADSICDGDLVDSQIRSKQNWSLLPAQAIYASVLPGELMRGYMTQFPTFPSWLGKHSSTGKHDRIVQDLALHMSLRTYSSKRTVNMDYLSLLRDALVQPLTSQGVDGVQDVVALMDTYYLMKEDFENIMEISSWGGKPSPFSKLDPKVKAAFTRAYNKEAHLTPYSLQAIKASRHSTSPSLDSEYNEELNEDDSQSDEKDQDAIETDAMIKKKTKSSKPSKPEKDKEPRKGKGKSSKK
To be noted: 150 mM NaCl, 50 mM Tris pH 8.0, 0.25% NP-40, 1 mM DTT, 4 C, 2 h, 100 ug nuclear extract, double strand, one strand shown.

For experiment [2], the target named is RFC2 (Homo sapiens) (UniProt P35250). To be noted: 150 mM NaCl, 50 mM Tris pH 8.0, 0.25% NP-40, 1 mM DTT, 4 C, 2 h, 100 ug nuclear extract, double strand, one strand shown.
The target in experiment [3] is RFC4 (Homo sapiens) (UniProt P35249). To be noted: 150 mM NaCl, 50 mM Tris pH 8.0, 0.25% NP-40, 1 mM DTT, 4 C, 2 h, 100 ug nuclear extract, double strand, one strand shown.
In experiment [4] the target is RFC5 (Homo sapiens) (UniProt P40937). To be noted: 150 mM NaCl, 50 mM Tris pH 8.0, 0.25% NP-40, 1 mM DTT, 4 C, 2 h, 100 ug nuclear extract, double strand, one strand shown.
Experiment [5] concerns the target RPA1 (Homo sapiens) (UniProt P27694). The following applies: 150 mM NaCl, 50 mM Tris pH 8.0, 0.25% NP-40, 1 mM DTT; 4 C, 2 h; 100 ug nuclear extract; double strand, one strand shown.
The target of experiment [6] is RPL27 (Homo sapiens) (UniProt P61353). To be noted: 150 mM NaCl, 50 mM Tris pH 8.0, 0.25% NP-40, 1 mM DTT; 4 C, 2 h; 100 ug nuclear extract; double strand, one strand shown.
In experiment [7] the target is RAD23B (Homo sapiens) (UniProt P54727). To be noted: 150 mM NaCl, 50 mM Tris pH 8.0, 0.25% NP-40, 1 mM DTT; 4 C, 2 h; 100 ug nuclear extract; double strand, one strand shown.
Experiment [8] concerns the target T2, RBM14 (Homo sapiens) (UniProt Q96PK6).
T2 sequence: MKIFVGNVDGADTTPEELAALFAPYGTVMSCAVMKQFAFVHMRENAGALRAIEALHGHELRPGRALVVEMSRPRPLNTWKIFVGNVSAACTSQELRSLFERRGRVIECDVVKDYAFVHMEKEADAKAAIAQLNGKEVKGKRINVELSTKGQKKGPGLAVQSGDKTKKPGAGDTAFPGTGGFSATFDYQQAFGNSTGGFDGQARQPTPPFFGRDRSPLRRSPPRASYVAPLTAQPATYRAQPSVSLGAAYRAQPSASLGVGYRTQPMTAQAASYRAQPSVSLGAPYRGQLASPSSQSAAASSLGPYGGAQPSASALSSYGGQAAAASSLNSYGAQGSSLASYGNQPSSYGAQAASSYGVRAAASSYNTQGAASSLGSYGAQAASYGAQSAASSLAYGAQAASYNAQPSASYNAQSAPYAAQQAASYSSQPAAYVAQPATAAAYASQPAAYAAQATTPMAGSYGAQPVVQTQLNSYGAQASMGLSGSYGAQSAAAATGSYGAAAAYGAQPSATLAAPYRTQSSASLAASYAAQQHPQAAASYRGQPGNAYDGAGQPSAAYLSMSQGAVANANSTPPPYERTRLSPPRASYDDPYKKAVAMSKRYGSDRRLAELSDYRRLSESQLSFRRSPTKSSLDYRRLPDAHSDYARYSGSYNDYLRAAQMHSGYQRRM
To be noted: 5mC at 15,17 (strand 1); 5mC at 14,16 (strand 2); 150 mM NaCl, 50 mM Tris pH 8.0, 0.25% NP-40, 1 mM DTT; 4 C, 2 h; 100 ug nuclear extract; double strand, one strand shown.

For experiment [9], the target named is RMI1 (Homo sapiens) (UniProt Q9H9A7). The following applies: 150 mM NaCl, 50 mM Tris pH 8.0, 0.25% NP-40, 1 mM DTT; 4 C, 2 h; 100 ug nuclear extract; double strand, one strand shown.
The mark [10] stands for this setting: 5mC at 15,17 (strand 1), 5mC at 14,16 (strand 2).

Sequence of UniProt P35249 (P35249 whole entry): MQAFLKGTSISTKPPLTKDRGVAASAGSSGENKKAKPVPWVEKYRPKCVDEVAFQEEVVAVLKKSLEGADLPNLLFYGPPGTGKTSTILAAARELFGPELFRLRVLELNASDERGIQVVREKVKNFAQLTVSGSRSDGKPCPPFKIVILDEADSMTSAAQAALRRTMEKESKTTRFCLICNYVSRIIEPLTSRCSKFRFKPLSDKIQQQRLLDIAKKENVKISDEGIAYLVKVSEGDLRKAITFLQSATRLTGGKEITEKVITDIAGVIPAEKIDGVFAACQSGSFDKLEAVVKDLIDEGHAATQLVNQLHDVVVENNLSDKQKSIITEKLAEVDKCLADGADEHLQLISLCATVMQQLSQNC
Sequence of UniProt P54727 (P54727 whole entry): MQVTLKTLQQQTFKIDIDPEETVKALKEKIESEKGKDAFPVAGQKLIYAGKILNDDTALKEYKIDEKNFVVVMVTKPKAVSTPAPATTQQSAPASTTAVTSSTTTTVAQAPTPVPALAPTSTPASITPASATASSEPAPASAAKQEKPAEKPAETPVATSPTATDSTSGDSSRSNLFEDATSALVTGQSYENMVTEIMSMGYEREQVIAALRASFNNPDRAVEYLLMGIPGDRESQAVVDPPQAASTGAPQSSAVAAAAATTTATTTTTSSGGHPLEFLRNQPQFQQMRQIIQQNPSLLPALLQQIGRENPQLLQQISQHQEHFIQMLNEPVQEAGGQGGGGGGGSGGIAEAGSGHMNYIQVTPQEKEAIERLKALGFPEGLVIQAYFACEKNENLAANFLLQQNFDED
Sequence of UniProt P40937 (P40937 whole entry): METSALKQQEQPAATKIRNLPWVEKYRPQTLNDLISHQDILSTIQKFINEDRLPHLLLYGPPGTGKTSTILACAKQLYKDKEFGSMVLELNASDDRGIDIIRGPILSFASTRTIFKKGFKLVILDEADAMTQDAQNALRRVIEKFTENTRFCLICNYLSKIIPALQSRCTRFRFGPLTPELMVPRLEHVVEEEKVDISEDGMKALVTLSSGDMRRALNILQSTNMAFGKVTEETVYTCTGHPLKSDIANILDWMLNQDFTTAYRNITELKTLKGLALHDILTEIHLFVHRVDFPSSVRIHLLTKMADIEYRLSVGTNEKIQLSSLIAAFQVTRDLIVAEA
Sequence of UniProt P35250 (P35250 whole entry): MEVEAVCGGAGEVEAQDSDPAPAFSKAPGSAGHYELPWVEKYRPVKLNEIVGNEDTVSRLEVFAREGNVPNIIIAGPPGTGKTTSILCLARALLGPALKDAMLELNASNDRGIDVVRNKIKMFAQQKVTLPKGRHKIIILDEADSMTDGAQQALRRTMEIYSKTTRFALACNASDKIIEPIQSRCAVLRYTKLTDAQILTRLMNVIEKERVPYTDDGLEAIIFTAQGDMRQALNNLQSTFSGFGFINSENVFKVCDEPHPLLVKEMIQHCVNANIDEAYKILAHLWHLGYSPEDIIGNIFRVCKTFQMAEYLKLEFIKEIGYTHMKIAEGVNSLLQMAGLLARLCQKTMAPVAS
Sequence of UniProt Q9H9A7 (Q9H9A7 whole entry): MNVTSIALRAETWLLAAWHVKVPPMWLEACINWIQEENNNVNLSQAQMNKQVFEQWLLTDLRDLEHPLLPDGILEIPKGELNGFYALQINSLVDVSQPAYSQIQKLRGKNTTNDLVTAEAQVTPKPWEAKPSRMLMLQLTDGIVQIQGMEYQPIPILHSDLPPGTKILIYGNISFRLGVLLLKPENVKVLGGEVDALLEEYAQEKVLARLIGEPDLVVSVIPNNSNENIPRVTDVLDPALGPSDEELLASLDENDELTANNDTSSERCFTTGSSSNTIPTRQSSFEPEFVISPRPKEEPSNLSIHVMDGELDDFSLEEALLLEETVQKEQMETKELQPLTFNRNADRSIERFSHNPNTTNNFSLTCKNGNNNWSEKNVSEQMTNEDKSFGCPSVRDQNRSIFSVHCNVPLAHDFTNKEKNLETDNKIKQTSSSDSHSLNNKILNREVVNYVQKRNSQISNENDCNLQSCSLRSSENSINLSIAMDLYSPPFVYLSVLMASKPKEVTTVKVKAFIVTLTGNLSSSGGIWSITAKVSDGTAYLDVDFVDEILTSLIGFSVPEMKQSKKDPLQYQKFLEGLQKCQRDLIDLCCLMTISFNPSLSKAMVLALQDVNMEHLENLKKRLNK
Sequence of UniProt P27694 (P27694 whole entry): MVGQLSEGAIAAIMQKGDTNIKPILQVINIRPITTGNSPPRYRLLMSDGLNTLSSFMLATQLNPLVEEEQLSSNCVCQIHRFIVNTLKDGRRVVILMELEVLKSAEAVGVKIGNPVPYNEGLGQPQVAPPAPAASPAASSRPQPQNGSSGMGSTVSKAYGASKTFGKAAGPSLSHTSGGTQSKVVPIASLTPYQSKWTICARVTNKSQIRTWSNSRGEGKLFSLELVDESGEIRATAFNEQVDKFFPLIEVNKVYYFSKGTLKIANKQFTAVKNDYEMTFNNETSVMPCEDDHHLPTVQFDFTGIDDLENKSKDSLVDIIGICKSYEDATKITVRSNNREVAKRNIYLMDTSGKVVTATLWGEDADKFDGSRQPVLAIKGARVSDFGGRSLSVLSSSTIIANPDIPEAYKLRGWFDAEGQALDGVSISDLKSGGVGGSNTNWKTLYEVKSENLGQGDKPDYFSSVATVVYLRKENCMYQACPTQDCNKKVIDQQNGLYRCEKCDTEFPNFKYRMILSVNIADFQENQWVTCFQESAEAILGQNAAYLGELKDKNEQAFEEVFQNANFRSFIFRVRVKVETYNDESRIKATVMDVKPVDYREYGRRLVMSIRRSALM

Turning to “GCCGCCGCCCTTCTCGCGAGACTGCCGGGCC [CGCG bait]”, the half-maximal binding in experiment [1] was 240 nM and 184 nM; in experiment [2] it was 210 nM; in experiment [3], 190 nM and 245 nM; in experiment [4] it was 213 nM; in experiment [5], 328 nM; in experiment [6], 464 nM.

With GAGAGCCCCGCCCCCTGGCT [SP/KLF bait], the half-maximal binding in [7] came out at 238 nM.

Regarding “GCCGCCGCCCTTCTCGCGAGACTGCCGGGCC [methylated CGCG bait]”, the half-maximal binding in experiment [8] worked out at 185 nM; in experiment [1] (setting [10]) it was 181 nM; in experiment [2] (setting [10]), 198 nM; in experiment [3] (setting [10]), 190 nM; in experiment [4] (setting [10]), 157 nM.

In the case of “GAGAGAAAATAAAACTGGCT [SP/KLF negative control bait]”, the half-maximal binding in experiment [7] turned out to be 133 nM; in experiment [9], 219 nM.
